According to the supplement of paper PMC9135407:
“And” between values parts separate entries of the source, which are not always exact repeats. Equal values may be shown once. Where a name gives a salt, the structure may show the parent alone. About 620 (11%) of roughly 5,800 compounds showed activity.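 The calls were made as follows: active = score above a cut-off or among the top three wells of a plate; in these data no inactive exceeds 0.85.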 This is a selection; strong and weak results do not stand in their true shares.

Test system: primary human hepatic stellate cells (donor 1)
Experiment: scaled lipid accumulation score (0 = DMSO-like, 1 = nortriptyline-like); higher = stronger HSC inactivation (lipid re-accumulation), active = hit call of the paper
Conditions: 48 h
[1] = library stock concentration: 10 mM
[2] = library stock concentration: 3.33 mM
[3] = library stock concentration: 1 mM
[4] = library stock concentration: 13.1 mM
[5] = library stock concentration: 15.4 mM
[6] = library stock concentration: 2 mM

In the case of CN(C)c1nc(N)c(C(=O)Nc2cccnc2)nc1Cl [ACDPP hydrochloride], the “scaled lipid accumulation score” value [1] is reported as inactive: ≤ -0.001.
COc1cc2c(cc1O)CC[C@@H]1[C@@H]2CC[C@]2(C)[C@@H](O)CC[C@@H]12 [2-methoxyestradiol] was tested, and the “scaled lipid accumulation score” value [1] was inactive: 0.157.
In the case of COc1cc2c(cc1O)CC[C@@H]1[C@@H]2CC[C@]2(C)[C@@H](O)CC[C@@H]12 [2-Methoxyestradiol], the “scaled lipid accumulation score” value [1] is reported as inactive: ≤ -0.006.
COc1cc2c(cc1O)CC[C@@H]1[C@@H]2CC[C@]2(C)[C@@H](O)CC[C@@H]12 [2-Methoxyestradiol (2-MeOE2)] was tested, and the “scaled lipid accumulation score” value [2] was inactive: ≤ 0 and the “scaled lipid accumulation score” value [1] was inactive: ≤ 0.
CCN(CC)CCOC(=O)C1(c2ccc([N+](=O)[O-])cc2)CCCC1 [Nitrocaramiphen hydrochloride] was tested, and the “scaled lipid accumulation score” value was inactive: 0.328 and the “scaled lipid accumulation score” value [1] was inactive: 0.44.
In the case of CCc1cccc(N(C)C(=N)Nc2cccc3ccccc23)c1.Cl, the “scaled lipid accumulation score” value [1] is reported as active: 0.912.
COc1cc(Br)c(S(=O)(=O)Nc2ccc(Cl)c(O[C@@H]3CCN(C)C3)c2)cc1OC was tested, and the “scaled lipid accumulation score” value [1] was inactive: 0.116.
With CCC(=O)O[C@H](CC(=O)O)C[N+](C)(C)C the “scaled lipid accumulation score” value [1] was inactive: ≤ 0.
In the case of Clc1ccccc1CN1CCc2sccc2C1, the “scaled lipid accumulation score” value [1] is reported as inactive: ≤ 0.
For Clc1ccccc1CN1CCc2sccc2C1 [Ticlopidine HCl], the “scaled lipid accumulation score” value (library stock concentration: 7.6 mM) was inactive: 0.018.
With Clc1ccccc1CN1CCc2sccc2C1 [Ticlopidine hydrochloride] the “scaled lipid accumulation score” value was inactive: ≤ 0 and the “scaled lipid accumulation score” value (library stock concentration: 6.7 mM) was inactive: ≤ 0.
With COc1cc2ncnc(Nc3ccc(F)c(Cl)c3)c2cc1NC(=O)C=CCN1CCCCC1 the “scaled lipid accumulation score” value [2] was active: 1.08.
With Nc1ccc(O)c(C(=O)O)c1 [5-Aminosalicylic Acid] the “scaled lipid accumulation score” value [3] was inactive: ≤ 0.
Nc1ccc(O)c(C(=O)O)c1 [5-Amino-2-hydroxy-benzoic acid] was tested, and the “scaled lipid accumulation score” value [1] was inactive: ≤ 0.
With Nc1ccc(O)c(C(=O)O)c1 [Mesalamine] the “scaled lipid accumulation score” value was inactive: ≤ 0, the “scaled lipid accumulation score” value [2] was inactive: ≤ 0 and the “scaled lipid accumulation score” value [1] was inactive: ≤ 0. The “scaled lipid accumulation score” value [4] was inactive: ≤ 0.
In the case of Nc1ccc(O)c(C(=O)O)c1 [5-aminosalicylic acid], the “scaled lipid accumulation score” value [4] is reported as inactive: ≤ 0.
For Cc1cc(NC(=O)C2=C(O)c3ccccc3S(=O)(=O)N2C)no1 [Isoxicam], the “scaled lipid accumulation score” value was inactive: 0.092, the “scaled lipid accumulation score” value (library stock concentration: 6 mM) was inactive: ≤ 0 and the “scaled lipid accumulation score” value [1] was inactive: ≤ -0.027.
For Cc1cc(C(C)(C)CC(C)(C)C)ccc1OCCOCC[N+](C)(C)Cc1ccccc1 [Methylbenzethonium chloride], the “scaled lipid accumulation score” value [1] was inactive: 0.276.
Cc1cc(C(C)(C)CC(C)(C)C)ccc1OCCOCC[N+](C)(C)Cc1ccccc1 [Methyl benzethonium chloride] was tested, and the “scaled lipid accumulation score” value was inactive: 0.451.
For O=C1NC(=O)/C(=C\c2ccc3nccnc3c2)S1, the “scaled lipid accumulation score” value [3] was inactive: ≤ 0 and the “scaled lipid accumulation score” value [1] was inactive: ≤ -0.055.
For CO[C@@]1(NC(=O)C2SC(=C(C(N)=O)C(=O)O)S2)C(=O)N2C(C(=O)O)=C(CSc3nnnn3C)CS[C@@H]21 (stereo partly drawn) [Cefotetan], the “scaled lipid accumulation score” value was inactive: ≤ 0.
CN(C)S(=O)(=O)c1ccc2c(c1)/C(=C/c1cc3c([nH]1)CCCC3)C(=O)N2 was tested, and the “scaled lipid accumulation score” value [1] was active: 0.958.
CC(=O)Oc1cc(C(F)(F)F)ccc1C(=O)O [Triflusal] was tested, and the “scaled lipid accumulation score” value was inactive: ≤ 0, the “scaled lipid accumulation score” value [2] was inactive: ≤ 0 and the “scaled lipid accumulation score” value [1] was inactive: ≤ -0.001.
For CCCCCCCC/C=C\CCCCCCCC(=O)NCc1ccc(O)c(OC)c1 [Olvanil], the “scaled lipid accumulation score” value [3] was inactive: ≤ 0 and the “scaled lipid accumulation score” value [1] was inactive: 0.073 and inactive: 0.023.
N=c1ccn2c(n1)O[C@H]1[C@H](O)[C@@H](CO)O[C@H]12 [Ancitabine hydrochloride] was tested, and the “scaled lipid accumulation score” value [1] was inactive: 0.277 and inactive: ≤ -0.027.
N=c1ccn2c(n1)O[C@H]1[C@H](O)[C@@H](CO)O[C@H]12 [Cyclocytidine HCl] was tested, and the “scaled lipid accumulation score” value [2] was inactive: ≤ 0, the “scaled lipid accumulation score” value (library stock concentration: 8.9 mM) was inactive: ≤ 0 and the “scaled lipid accumulation score” value [1] was inactive: ≤ 0.
With CNC(=O)c1ccc2cc([C@@]3(O)CCn4cncc43)ccc2c1 [TAK-700 (Orteronel)] the “scaled lipid accumulation score” value [2] was inactive: ≤ 0 and the “scaled lipid accumulation score” value [1] was inactive: 0.084.
In the case of CN(C)CCCN1c2ccccc2Sc2ccc(Cl)cc21.Cl [Chlorpromazine HCl], the “scaled lipid accumulation score” value [1] is reported as active: 0.833.
With C[C@]12C=CC(=O)C=C1CC[C@@H]1[C@@H]2[C@@H](O)C[C@@]2(C)[C@H]1CC[C@]2(O)C(=O)CO [Prednisolone] the “scaled lipid accumulation score” value was inactive: ≤ 0, the “scaled lipid accumulation score” value [2] was inactive: ≤ 0 and the “scaled lipid accumulation score” value [1] was inactive: 0.102 and inactive: ≤ 0.
In the case of O=C(O)c1cc(=O)c2cccc(O)c2[nH]1 [Xanthurenic acid], the “scaled lipid accumulation score” value [1] is reported as inactive: ≤ 0.
O=c1[nH]cc(F)c(=O)[nH]1 was tested, and the “scaled lipid accumulation score” value [1] was inactive: ≤ 0.
With O=c1[nH]cc(F)c(=O)[nH]1 [5-Fluorouracil] the “scaled lipid accumulation score” value [1] was inactive: ≤ -0.07.
For O=c1[nH]cc(F)c(=O)[nH]1 [Fluorouracil], the “scaled lipid accumulation score” value [1] was inactive: ≤ 0 and the “scaled lipid accumulation score” value [5] was inactive: 0.007.
O=c1[nH]cc(F)c(=O)[nH]1 [5-fluorouracil] was tested, and the “scaled lipid accumulation score” value [5] was inactive: ≤ 0.
For O=c1[nH]cc(F)c(=O)[nH]1 [Fluorouracil (5-Fluoracil, 5-FU)], the “scaled lipid accumulation score” value [2] was inactive: ≤ 0 and the “scaled lipid accumulation score” value [1] was inactive: ≤ 0.
N#CCNC(=O)c1ccc(-c2ccnc(Nc3ccc(N4CCOCC4)cc3)n2)cc1 [Momelotinib (CYT387) (2 mM)] was tested, and the “scaled lipid accumulation score” value [6] was active: 0.858.
N#CCNC(=O)c1ccc(-c2ccnc(Nc3ccc(N4CCOCC4)cc3)n2)cc1 [Momelotinib (CYT387) (10 mM)] was tested, and the “scaled lipid accumulation score” value [1] was active: 0.945.
In the case of CS(=O)(=O)c1ccc([C@@H](O)[C@@H](CO)NC(=O)C(Cl)Cl)cc1 [Thiamphenicol], the “scaled lipid accumulation score” value is reported as inactive: ≤ 0, the “scaled lipid accumulation score” value [2] is reported as inactive: ≤ 0 and the “scaled lipid accumulation score” value [1] is reported as inactive: ≤ 0 and inactive: ≤ -0.026.
In the case of CC(C)Cc1ccc([C@H](C)C(=O)O)cc1 [S-(+)-ibuprofen], the “scaled lipid accumulation score” value is reported as inactive: ≤ 0.
In the case of CC(C)Cc1ccc([C@H](C)C(=O)O)cc1 [S(+)-Ibuprofen], the “scaled lipid accumulation score” value [1] is reported as inactive: ≤ -0.055.
With CCCCCCCCC#CCC#CCC#CCCCC(=O)O [5,8,11-Eicosatriynoic Acid] the “scaled lipid accumulation score” value [3] was inactive: 0.059.
In the case of CCCCCCCCC#CCC#CCC#CCCCC(=O)O [5,8,11-Eicosatriynoic acid], the “scaled lipid accumulation score” value [3] is reported as inactive: ≤ -0.021.
For C[C@@H](c1ncncc1F)[C@](O)(Cn1cncn1)c1ccc(F)cc1F [Voriconazole], the “scaled lipid accumulation score” value [2] was inactive: 0.004 and the “scaled lipid accumulation score” value [1] was inactive: ≤ 0.
With C[C@@H](c1ncncc1F)[C@](O)(Cn1cncn1)c1ccc(F)cc1F the “scaled lipid accumulation score” value (library stock concentration: 9.9 mM) was inactive: ≤ 0.
In the case of Cc1nn(C)c2nc(NNC(=O)Nc3cc(Cl)nc(Cl)c3)cc(C(C)C)c12, the “scaled lipid accumulation score” value [3] is reported as inactive: ≤ 0 and the “scaled lipid accumulation score” value [1] is reported as inactive: ≤ -0.001.
O=C(O)Cc1ccccc1Nc1c(Cl)cccc1Cl [Diclofenac Sodium] was tested, and the “scaled lipid accumulation score” value [2] was inactive: ≤ 0 and the “scaled lipid accumulation score” value [1] was inactive: 0.007.
O=C(O)Cc1ccccc1Nc1c(Cl)cccc1Cl was tested, and the “scaled lipid accumulation score” value [1] was inactive: ≤ 0.
For O=C(O)Cc1ccccc1Nc1c(Cl)cccc1Cl [Diclofenac Potassium], the “scaled lipid accumulation score” value [2] was inactive: ≤ 0 and the “scaled lipid accumulation score” value [1] was inactive: ≤ 0.
For O=C(O)Cc1ccccc1Nc1c(Cl)cccc1Cl [Diclofenac (sodium salt)], the “scaled lipid accumulation score” value [3] was inactive: ≤ 0.
In the case of O=C(O)Cc1ccccc1Nc1c(Cl)cccc1Cl [Diclofenac sodium], the “scaled lipid accumulation score” value is reported as inactive: 0.036, the “scaled lipid accumulation score” value (library stock concentration: 6.3 mM) is reported as inactive: 0.003 and the “scaled lipid accumulation score” value [1] is reported as inactive: ≤ -0.07 and inactive: ≤ 0.
For O=C(O)Cc1ccccc1Nc1c(Cl)cccc1Cl [Diclofenac Diethylamine], the “scaled lipid accumulation score” value [2] was inactive: ≤ 0 and the “scaled lipid accumulation score” value [1] was inactive: ≤ 0.
In the case of Cc1c(NC(=O)c2ccc(C(C)(C)C)cc2)cccc1-c1cn(C)c(=O)c(Nc2ccc(C(=O)N3CCOCC3)cc2)n1, the “scaled lipid accumulation score” value [2] is reported as inactive: ≤ 0 and the “scaled lipid accumulation score” value [1] is reported as inactive: ≤ -0.001.
In the case of CN1CCN(CCCN2c3ccccc3Sc3ccc(S(=O)(=O)N(C)C)cc32)CC1 [Thioproperazine dimesylate], the “scaled lipid accumulation score” value is reported as inactive: 0.733.
For CCCCC/C=C\C/C=C\C/C=C\CCCCCCC(=O)OCC [Dihomo-.gamma.-Linolenic Acid ethyl ester], the “scaled lipid accumulation score” value [3] was inactive: 0.019.
For COc1ccc(-c2nc(C(=O)N3CCN(C)CC3)sc2-c2ccc(OC)cc2)cc1, the “scaled lipid accumulation score” value [3] was inactive: ≤ 0 and the “scaled lipid accumulation score” value [1] was inactive: 0.693.
COc1ccc(CNC(=O)Nc2ncc([N+](=O)[O-])s2)cc1 was tested, and the “scaled lipid accumulation score” value [1] was active: 0.864.
C[C@@H]1CC(=O)NN=C1c1ccc(NN=C(C#N)C#N)cc1 was tested, and the “scaled lipid accumulation score” value [1] was inactive: 0.073.
C[C@@H]1CC(=O)NN=C1c1ccc(NN=C(C#N)C#N)cc1 [Levosimendan] was tested, and the “scaled lipid accumulation score” value [2] was inactive: ≤ 0 and the “scaled lipid accumulation score” value [1] was inactive: ≤ 0.
With Cc1ccccc1/C=C/C1=NCCN1 [Metrazoline oxalate] the “scaled lipid accumulation score” value [1] was inactive: 0.381.
For O=C(Nc1ccc(-c2cn[nH]c2)cc1)C1COc2ccccc2O1 (stereo not drawn) [Rho Kinase Inhibitor V], the “scaled lipid accumulation score” value [2] was inactive: ≤ 0.
In the case of COc1ccc2c(c1)c(CC(=O)Oc1ccc(-c3cc(=S)ss3)cc1)c(C)n2C(=O)c1ccc(Cl)cc1, the “scaled lipid accumulation score” value [3] is reported as inactive: ≤ 0.
In the case of CC(=O)O[C@]1(C(C)=O)CC[C@H]2[C@@H]3C=C(C)C4=CC(=O)CC[C@@H]4[C@H]3CC[C@@]21C [Nomegestrol acetate], the “scaled lipid accumulation score” value is reported as inactive: ≤ 0.
In the case of COc1ccc(CCN(C)CCc2ccc(OC)c(OC)c2)cc1OC [YS-035 hydrochloride], the “scaled lipid accumulation score” value [1] is reported as inactive: 0.011 and inactive: 0.112.
With NC(=O)c1noc([C@H](CCCC2CCCCC2)CC(=O)NO)n1 the “scaled lipid accumulation score” value [2] was inactive: ≤ 0 and the “scaled lipid accumulation score” value [1] was inactive: ≤ 0.
CC[N+](CC)(CC)CC [Tetraethylammonium chloride] was tested, and the “scaled lipid accumulation score” value [1] was inactive: ≤ 0.
In the case of Cc1cccc(-c2[nH]c(C(C)(C)C)nc2-c2ccc3nccnc3c2)n1, the “scaled lipid accumulation score” value (library stock concentration: 80 uM) is reported as inactive: 0.053, the “scaled lipid accumulation score” value (library stock concentration: 400 uM) is reported as inactive: ≤ -0.009 and the “scaled lipid accumulation score” value [6] is reported as inactive: ≤ -0.009. For the same compound, the “scaled lipid accumulation score” value [2] was inactive: ≤ 0 and the “scaled lipid accumulation score” value [1] was inactive: ≤ 0 and inactive: 0.077 and inactive: 0.047.
With CC(C)Oc1cccc(-n2c(CCc3c[nH]c4ccc(Br)cc34)nc3ccccc3c2=O)c1 the “scaled lipid accumulation score” value [1] was inactive: ≤ 0.
